Test results taken from article PMC4336329 (PLoS ONE, 2015).
Screen size: about 310,000 compounds; about 2,200 (0.71%) showed an effect of 50% or more. The effect is printed as a negative number. This is one part of the list.

What follows are molecules tested against human ether-à-go-go-related gene (hERG) potassium channel (human, UniProt Q12809) (assay: primary screen, population patch clamp on CHO cells stably expressing hERG).
Sequence of human ether-à-go-go-related gene (hERG) potassium channel (Q12809 whole entry, looked up): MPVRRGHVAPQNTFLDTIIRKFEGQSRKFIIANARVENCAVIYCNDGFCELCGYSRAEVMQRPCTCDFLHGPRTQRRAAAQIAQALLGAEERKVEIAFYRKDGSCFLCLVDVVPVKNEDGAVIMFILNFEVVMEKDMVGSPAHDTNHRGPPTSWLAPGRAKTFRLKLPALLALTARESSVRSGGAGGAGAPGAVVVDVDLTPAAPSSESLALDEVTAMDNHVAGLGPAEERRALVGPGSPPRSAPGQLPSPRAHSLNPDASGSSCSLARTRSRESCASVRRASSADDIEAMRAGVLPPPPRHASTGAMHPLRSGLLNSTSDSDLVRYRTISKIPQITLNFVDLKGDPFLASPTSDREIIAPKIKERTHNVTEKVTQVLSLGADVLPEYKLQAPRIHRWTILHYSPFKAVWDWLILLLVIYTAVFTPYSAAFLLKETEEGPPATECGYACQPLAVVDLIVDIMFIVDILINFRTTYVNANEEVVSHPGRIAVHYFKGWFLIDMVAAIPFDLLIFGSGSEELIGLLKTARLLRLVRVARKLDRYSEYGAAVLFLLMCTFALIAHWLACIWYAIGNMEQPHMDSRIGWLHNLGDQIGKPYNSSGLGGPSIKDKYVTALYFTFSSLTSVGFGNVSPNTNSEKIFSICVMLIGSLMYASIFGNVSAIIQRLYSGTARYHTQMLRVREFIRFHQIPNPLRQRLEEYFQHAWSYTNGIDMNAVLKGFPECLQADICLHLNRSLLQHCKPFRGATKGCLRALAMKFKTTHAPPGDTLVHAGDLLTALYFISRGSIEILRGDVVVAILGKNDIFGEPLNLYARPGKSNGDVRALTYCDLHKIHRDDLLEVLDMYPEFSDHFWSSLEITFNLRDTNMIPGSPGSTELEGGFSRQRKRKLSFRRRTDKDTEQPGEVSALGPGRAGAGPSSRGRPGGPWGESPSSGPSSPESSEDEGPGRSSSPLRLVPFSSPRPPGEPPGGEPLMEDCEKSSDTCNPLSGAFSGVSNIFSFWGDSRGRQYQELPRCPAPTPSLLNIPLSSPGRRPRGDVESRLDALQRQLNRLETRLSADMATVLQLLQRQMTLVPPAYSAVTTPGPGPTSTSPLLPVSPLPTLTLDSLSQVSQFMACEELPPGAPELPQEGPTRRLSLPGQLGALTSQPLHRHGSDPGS
For `C/C(=N/NS(=O)(=O)c1ccccc1)c1ccc(Cl)cc1`, the “hERG current change (%, negative = inhibition) at 1uM” value was 15.3%. `O=c1c2ccccc2nc(-c2ccccc2)n1/N=C/c1ccc([N+](=O)[O-])cc1` was tested, and the “hERG current change (%, negative = inhibition) at 1uM” value was 12.1%. With `N#Cc1ccc(COC(=O)CC(NC(N)=O)c2ccc(Cl)cc2)cc1` (stereo not drawn) the “hERG current change (%, negative = inhibition) at 1uM” value was -7.15%. For `CCSc1cc(N2CCCC2)nc(-c2ccc(C)cc2)n1`, the “hERG current change (%, negative = inhibition) at 1uM” value was 14.3%. `O=C(CN1CCOCCOCCOCCOCC1)Nc1ccccc1` was tested, and the “hERG current change (%, negative = inhibition) at 1uM” value was 8.33%. In the case of `COc1ccc(Br)cc1CN(C)C(=O)Cc1ccc(S(=O)(=O)N2CCOCC2)s1`, the “hERG current change (%, negative = inhibition) at 1uM” value is reported as -17.3%. In the case of `CCOc1ccc(NC(=O)c2cc([N+](=O)[O-])ccc2N2CCOCC2)cc1`, the “hERG current change (%, negative = inhibition) at 1uM” value is reported as -16.3%. With `Cc1ccc(S(=O)(=O)NCCC(=O)Nc2nnc(C)s2)cc1` the “hERG current change (%, negative = inhibition) at 1uM” value was -1.76%. `COc1ccc(S(=O)(=O)NC(CC(=O)O)c2ccco2)cc1` (stereo not drawn) was tested, and the “hERG current change (%, negative = inhibition) at 1uM” value was -2.15%. For `O=S(=O)(c1ccc(-n2cnnn2)cc1)N(C1CCCCC1)C1CCCCC1`, the “hERG current change (%, negative = inhibition) at 1uM” value was 9.04%. With `CCOC(=O)c1sc2ncnc(Nc3cccc(C(=O)O)c3)c2c1C` the “hERG current change (%, negative = inhibition) at 1uM” value was 18.6%. With `NC(=O)CSc1nnc(C2CC2)n1Cc1ccccc1` the “hERG current change (%, negative = inhibition) at 1uM” value was 6.27%. `COCCCNC(=O)c1cc2c(=O)n3cccc(C)c3nc2n(C(C)C)c1=N` was tested, and the “hERG current change (%, negative = inhibition) at 1uM” value was -46.1%. With `Cc1ccc(OCC(=O)Nc2nnc(S(=O)(=O)N3CCCCC3)s2)cc1` the “hERG current change (%, negative = inhibition) at 1uM” value was 7.35%. `Cc1c(CN2CCC(n3nccc3NC(=O)C3CCOC3)CC2)[nH]c2ccccc12` (stereo not drawn) was tested, and the “hERG current change (%, negative = inhibition) at 1uM” value was -11%. With `O=C(CNC(=O)c1ccccc1Cl)Nc1ccc(F)cc1` the “hERG current change (%, negative = inhibition) at 1uM” value was 8.07%. With `CSc1ccc(CN(C)CC(=O)Nc2c(F)cccc2F)cc1.O=C(O)C(=O)O` the “hERG current change (%, negative = inhibition) at 1uM” value was 7.89%. `Cc1ccc(NC(=O)COC(=O)c2c(-c3ccccc3)noc2C)cc1` was tested, and the “hERG current change (%, negative = inhibition) at 1uM” value was -1.78%. For `CCCCn1c(=NC(=O)c2ccc3c(c2)OCO3)c(C#N)cc2c(=O)n3cccc(C)c3nc21`, the “hERG current change (%, negative = inhibition) at 1uM” value was 12.4%. With `CN1CCC(=NNC(=O)CN(c2cccc([N+](=O)[O-])c2)S(=O)(=O)c2ccccc2)CC1` the “hERG current change (%, negative = inhibition) at 1uM” value was 8.11%. For `COC(=O)c1ccc(N2CCCCC2)c(NS(=O)(=O)c2ccc(C)cc2)c1`, the “hERG current change (%, negative = inhibition) at 1uM” value was 12.6%. For `Cc1nnc(NC(=O)C(c2ccccc2)c2ccccc2)s1`, the “hERG current change (%, negative = inhibition) at 1uM” value was 8.35%. With `O=C(CN(Cc1ccc(F)cc1)C(=O)c1csnn1)NC1CCCC1` the “hERG current change (%, negative = inhibition) at 1uM” value was 16.1%. With `COc1ccc(NC(=O)C(=O)NCCCO)cc1Cl` the “hERG current change (%, negative = inhibition) at 1uM” value was 11.7%.
